Several values for one entry are separate records, joined by “and”; a condition that tells them apart may be missing. Equal values may be shown once. Among all 280,000 compounds or so, about 100 (0.036%) were called active. This list was built around the results that the source calls inconclusive (neither active nor inactive); the mix of calls is not that of the screen. The call rests on the fitted dose curve; in most records, active means well fitted inhibition curve with a large enough effect in the signal ratio, with a control signal flat (not every such curve was filed as active); inconclusive means small, poorly fitted or top-dose-only effect, or effect the other way, or a change in a side signal; inactive means no such curve, though single readings can be large or run the other way; the % refers to the signal ratio. Where the call is inconclusive, the potency comes from a doubtful curve fit. A note “side channel” means that the fit belongs to a control or component signal, not to the main read-out.
Target: Muscleblind-like protein 1 (Homo sapiens) (UniProt Q9NR56)
Sequence of UniProt Q9NR56 (Q9NR56 whole entry, looked up): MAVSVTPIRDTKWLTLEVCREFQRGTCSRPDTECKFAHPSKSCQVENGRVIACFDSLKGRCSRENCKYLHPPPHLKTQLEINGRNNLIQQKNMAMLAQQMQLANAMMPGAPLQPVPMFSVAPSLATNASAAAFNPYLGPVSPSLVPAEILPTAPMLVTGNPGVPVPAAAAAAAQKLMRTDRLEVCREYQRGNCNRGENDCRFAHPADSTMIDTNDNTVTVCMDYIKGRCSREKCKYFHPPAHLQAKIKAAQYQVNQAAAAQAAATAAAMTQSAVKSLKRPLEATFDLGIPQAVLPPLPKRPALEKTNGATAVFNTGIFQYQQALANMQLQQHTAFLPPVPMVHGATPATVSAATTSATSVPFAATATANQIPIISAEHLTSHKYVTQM
Experiment: qHTS Assay for Inhibitors of MBNL1-poly(CUG) RNA binding
Details: TR-FRET MBNL1-His/biotin-(CUG)12 binding, 665/545 ratio; activity change, negative = inhibition: at 57.5 µM (top of the series)
In short: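 Ratiometric TR-FRET (665 over 545 nm, excitation 340 nm) tracks disruption of MBNL1-His/biotin-(CUG)12 complex after 60 min at room temperature, with compounds at 92 nM to 58 uM final.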
On the % scale 0 is the no-effect control and ±100 the full control effect; potency means the concentration at half of the fitted maximal effect; tags describe the fitted curve by direction and shape or compound fluorescence and quenching.

Row | SMILES | Potency | activity change, negative = inhibition
1 | COc1ccc(OC)c(NC(=O)c2ccc(S(=O)(=O)N3CCN(C)CC3)cc2)c1 | inconclusive: 1 µM [quencher, side channel, full curve, poor fit] | –
2 | COc1cc(/C=C2/CC(C)OC2=O)c([N+](=O)[O-])cc1OC (stereo not given) | inconclusive: 14.1 µM [quencher, side channel, partial curve] | –
3 | CCN1CCCC1CNC(=O)c1ccccc1Cl (stereo not given) | – | inactive: -3.16%
4 | COc1ccc(NC(=O)c2ccc(C)cc2)cc1 | – | inactive: 2.67%
5 | CCC1CCCCN1CCNC(=O)C1CCN(S(=O)(=O)c2cccc3nsnc23)CC1 (stereo not given) | inconclusive: 7.94 µM [quencher, side channel, partial curve] | –
6 | O=C(CSc1ccccc1[N+](=O)[O-])NC1CCS(=O)(=O)C1 (stereo not given) | inconclusive: 25.1 µM [quencher, side channel, partial curve] | –
7 | CN(CCCNC(=O)C1CCN(S(=O)(=O)c2cccc3nsnc23)CC1)Cc1ccccc1 | inconclusive: 12.6 µM [quencher, side channel, partial curve] | –
8 | Cc1ccc(Sc2c(C=O)c3ccccc3n2C)cc1 | – | inactive: 27.7%
9 | CC1CC/C(=N/Nc2ccccc2)C(=O)N1 (stereo not given) | inconclusive: 35.5 µM [quencher, side channel, single point] | –
10 | CCN1c2ccccc2NC2N=C(OC)C(c3ccccc3)C21 (stereo not given) | inconclusive: 17.8 µM [quencher, side channel, partial curve] | –
11 | Cc1c(NC(=O)c2ccc3nsnc3c2)cccc1[N+](=O)[O-] | inconclusive: 10 µM [quencher, side channel, partial curve] | –
12 | Cc1ccc(S(=O)(=O)NNC(=O)c2ccc3ccccc3n2)cc1 | inconclusive: 7.94 µM [quencher, side channel, partial curve] | –
13 | Cc1cc2c(cc1S(=O)(=O)N(C)c1ccccc1)n(C)c(=O)n2C | – | inactive: -1.22%
14 | CN1C[C@@H]2C(c3ccc(Cl)nc3)C3(c4ccccc4)CC2(C3)[C@H]1c1ccccc1 (stereo not given in full) | – | inactive: 10.3%
15 | O=C(O)CCCCCN1C(=O)/C(=C\c2cn(-c3ccccc3)nc2-c2cccs2)SC1=S | inconclusive: 6.31 µM [fluorescent, side channel, single point] | –
16 | Cc1[nH]ccc(=O)c1OCc1ccccc1 | – | inactive: -4.62%
17 | CCC(=O)Nc1ccc(C(=O)N/N=C/c2cccnc2)cc1 | inconclusive: 25.1 µM [quencher, side channel, partial curve] | –
18 | Cc1ccc(C)n1-c1cc([N+](=O)[O-])ccc1-n1ccnc1 | inconclusive: 11.2 µM [quencher, side channel, partial curve] | –
19 | N/C(=N\OC(=O)COc1ccc(Br)cc1Cl)c1ccncc1 | inconclusive: 5.62 µM [fluorescent, side channel, partial curve, poor fit] | –
20 | CC1CCN(S(=O)(=O)c2ccc3c(c2)N(C)C(=O)CC(=O)N3C)CC1 | – | inactive: 5.19%
21 | COc1ccc(N2CSC3=C(C#N)C(c4ccc(OC)c(OC)c4)CC(=O)N3C2)c(OC)c1 (stereo not given) | – | inactive: 21.5%
22 | COc1ccc(CCNCc2ccc(OCc3ccccc3)cc2)cc1 | – | inactive: -5.45%

Row | SMILES | Potency | activity change, negative = inhibition
23 | COc1ccccc1Nc1c([N+](=O)[O-])cncc1[N+](=O)[O-] | inconclusive: 11.2 µM [quencher, side channel, partial curve] | –
24 | O=C(Nc1ccccc1)C(=O)c1c[nH]c2ccccc12 | – | inactive: 4.25%
25 | CN1CCC(=NNC(=O)CSCc2ccccc2)CC1 | – | inactive: -7.14%
26 | O=C(Nc1ccccc1)c1sccc1Oc1ccc([N+](=O)[O-])cc1F | inconclusive: 20 µM [quencher, side channel, partial curve] | –
27 | COc1ccc(/C=C2\SC(=O)NC2=S)cc1OC | inconclusive: 31.6 µM [quencher, single point] | –
28 | Cn1nnc(NC(=S)NC(=O)/C=C/c2ccco2)n1 | – | inactive: 14.3%
29 | CC(C)(C)c1csc(NNC(=O)c2ccc(Cl)cc2)n1 | – | inactive: -0.414%
30 | COc1ccc2c(OC)cc(=O)n(C)c2c1 | – | inactive: -17.6%
31 | Nc1c(Cl)ncnc1N/N=C/c1cccc(O)c1 | inconclusive: 22.4 µM [quencher, side channel, single point] | –
32 | Cc1ccc(S(=O)(=O)N(C)CC(=O)O/N=C(\N)c2ccc([N+](=O)[O-])cc2)cc1 | inconclusive: 25.1 µM [quencher, side channel, partial curve] | –
33 | O=C(O)c1ccc(NC(=O)c2ccc3c(c2)C(=O)N(CC2CCCO2)C3=O)cc1 (stereo not given) | inconclusive: 15.8 µM [quencher, partial curve] | –
34 | O=[N+]([O-])c1cccc(S(=O)(=O)NCCc2cn3ccccc3n2)c1 | inconclusive: 11.2 µM [quencher, side channel, partial curve] | –
35 | C=CCN1C(=O)c2ccc(C(=O)OCC(=O)N(C)C3CCCCC3)cc2C1=O | inconclusive: 10 µM [quencher, partial curve] | –
36 | Cc1ccc2nc3ccc(N4CCCC4)nn3c(=O)c2c1 | inconclusive: 15.8 µM [quencher, side channel, partial curve] | –
37 | Cc1ccc(-n2c(C)c([N+](=O)[O-])c3ccc(O)c(CN(C)C)c32)cc1 | inconclusive: 12.6 µM [quencher, side channel, partial curve] | –
38 | COn1c(=O)c(-c2cccc(Br)c2)[n+]([O-])c2ccccc21 | inconclusive: 5.62 µM [quencher, full curve, poor fit] | –
39 | CC(C)NC(=O)COc1coc(CN2CCN(c3cccc(Cl)c3)CC2)cc1=O | – | inactive: -2.71%
40 | CC(C)c1ccc(CNc2ccc([N+](=O)[O-])cn2)cc1 | inconclusive: 20 µM [quencher, side channel, single point] | –
41 | N=c1c(C(=O)NC2CCCC2)cc2c(=O)n3ccccc3nc2n1Cc1ccccc1 | inconclusive: 2 µM [quencher, side channel, full curve] | –
42 | CCC(C)NC(=O)c1cc2cc3ccc(OC)cc3nc2s1 (stereo not given) | inconclusive: 7.94 µM [quencher, side channel, partial curve] | –
43 | Cc1nn(-c2ccccc2)c(Cl)c1C(=O)OC(C)C(=O)NC(=O)NC1CCCCC1 (stereo not given) | – | inactive: 2.38%
44 | CCn1nc(C(=O)O)c(=O)c2cc3c(cc21)OCO3 | inconclusive: 10 µM [quencher, side channel, partial curve] and inconclusive: 2.51 µM [quencher, side channel, full curve] | –

Row | SMILES | Potency | activity change, negative = inhibition
45 | O=C(NC1CCCCCC1)C(=S)N1CCCC1 | – | inactive: -1.66%
46 | O=C1CCCC(=O)N1c1ccc(N2CCN(c3ccccc3)CC2)c([N+](=O)[O-])c1 | inconclusive: 7.08 µM [quencher, side channel, partial curve] | –
47 | CC1(OC(=O)CCc2ccccc2)C(=O)C=C2C=C3CCCN3C=C2C1=O (stereo not given) | inconclusive: 17.8 µM [quencher, side channel, partial curve] | –
48 | COc1ccc(-c2c3c([nH]c(=S)c2C#N)CCC3)cc1 | – | inactive: 8.04%
49 | Cc1cccn2c(=O)c(/C=C(\C#N)S(=O)(=O)c3ccccc3)c(N3CCC(C(N)=O)CC3)nc12 | inconclusive: 14.1 µM [quencher, side channel, partial curve] | –
50 | CCCCN(C(=O)NC(=O)C1=C(N2CCOCC2)/C(=C/c2ccccc2)CC1)S(C)(=O)=O | inconclusive: 17.8 µM [quencher, side channel, single point] | –
51 | CN1C=CC(=C2C(=O)c3ccccc3C2=O)C=C1 | inconclusive: 11.2 µM [quencher, side channel, partial curve] | –
52 | COc1cccc(=O)c2c(C)n(CC(=O)c3ccccc3)c(C)c12 | inconclusive: 39.8 µM [quencher, side channel, single point] | –
53 | CN(C)C(=O)COC(=O)/C=C/c1ccccc1[N+](=O)[O-] | inconclusive: 15.8 µM [quencher, partial curve] | –
54 | Cc1ccc(-n2c(N)c(C(=O)N3CCN(C)CC3)sc2=S)cc1 | inconclusive: 25.1 µM [quencher, side channel, single point] | –
55 | COC(=O)c1ccc(CSc2ccc3nnc(-c4ccccc4)n3n2)o1 | inconclusive: 8.91 µM [quencher, side channel, partial curve] | –
56 | Cc1c(CN(C)C)c2c(n1Cc1ccccc1)C(=O)c1ccc(Br)cc1-2 | inconclusive: 17.8 µM [quencher, side channel, partial curve] | –
57 | CCOc1ccc(Nc2ccnc3cc(Cl)ccc23)cc1 | inconclusive: 14.1 µM [quencher, side channel, partial curve] | –
58 | CCOC(=O)c1cnc2ccc(OCC)cc2c1NCc1cccnc1 | – | inactive: 3.51%
59 | CC(=O)N1N=C(c2cccc([N+](=O)[O-])c2)OC1c1cccc(Br)c1 (stereo not given) | inconclusive: 28.2 µM [quencher, side channel, single point] | –
60 | O=C(O)C1OC(Oc2c(-c3ccc(O)c(O)c3)oc3cc(O)cc(O)c3c2=O)C(O)C(O)C1O (stereo not given) | inconclusive: 20 µM [quencher, side channel, partial curve] | –
61 | Nc1ccc(-n2cc(-c3ccccc3)[nH]c2=S)cc1 | – | inactive: -5.49%
62 | Cc1[nH]n(-c2ccccc2)c(=O)c1/C=N/c1nn[nH]n1 | – | inactive: -21.8%
63 | CCOC(=O)COn1c(=O)c(C)[n+]([O-])c2ccccc21 | inconclusive: 15.8 µM [quencher, partial curve] | –
64 | CCC(CC)c1nnc(NC(=O)C2CC(=O)N(CCc3ccc(F)cc3)C2)s1 (stereo not given) | – | inactive: 1.05%
65 | CNc1ncc(C(=O)c2ccc(F)cc2)s1 | inconclusive: 15.8 µM [quencher, partial curve] | –

— PubChem BioAssay AID2675 (National Center for Advancing Translational Sciences (NCATS), 2010)
